From patent US20050142634A1, “Novel modulator of non-genomic activity of nuclear receptors (mnar) and uses thereof” (Wyeth, priority 2001, published 2005) come the findings set out here.

The assay deals with ER. The assay is described as follows: MNAR structural-functional analysis, ER-stimulated transcription in HepG2 cells. It counts as cell-based. The note with it: PXXP motif MNAR mutants transfected into HepG2 cells. Here is the method: To delineate the regions of MNAR that are responsible for interaction with estrogen receptor and c-Src tyrosine kinase, we performed functional evaluation of MNAR deletion mutants (FIG. 12). A series of C-terminal truncations of MNAR was generated using specially designed oligonucleotides, by amplifying appropriate fragments and cloning them into appropriate expression vectors. These mutants were tested for their abilities to enhance ER-stimulated transcription when transfected into HepG2 cells.
At the C-terminus, MNAR contains a region rich in both proline and glutamic acid. To delineate the regions on MNAR responsible for interaction with estrogen receptors and c-src tyrosine kinase, a functional evaluation of MNAR deletion mutants was performed (FIG. 12). A series of C-terminal truncations of MNAR was generated using specially designed oligonucleotides, by amplifying appropriate fragments and cloning them into appropriate expression vectors. These mutants were tested for their abilities to enhance ER-stimulated transcription when transfected into HepG2 cells.

B1: PXXP mutant 1: MNAR with first PXXP motif (aa 55-58) mutated (protein, listed as Homo sapiens)
chain: MAAAVLSGPSAGSAAGVPGGTGGLSAVSSGPRLRLLLLESVSGLLQPRTGSAVAAVHAPNRSAPHLPGLMCLLRLHGSVGGAQNLSALGALVSLSNARLSSIKTRFEGLCLLSLLVGESPTELFQQHCVSWLRSIQQVLQTQDPPATMELAVAVLRDLLRYAAQLPALFRDISMNHLPGLLTSLLGLRPECEQSALEGMKACMTYFPRACGSLKGKLASFFLSRVDALSPQLQQLACECYSRLPSLGAGFSQGLKHTESWEQELHSLLASLHTLLGALYEGAETAPVQNEGPGVEMLLSSEDGDAHVLLQLRQRFSGLARCLGLMLSSEFGAPVSVPVQEILDFICRTLSVSSKNISLHGDGPLRLLLLPSIHLEALDLLSALILACGSRLLRFGILIGRLLPQVLNSWSIGRDSLSPGQERPYSTVRTKVYAILELWVQVCGASAGMLQGGASGEALLTHLLSDISPP
On to B1, for which the “role of mutated PXXP motif in activating ER transcriptional activity” value is “necessary and sufficient”.

B2: PXXP mutant 2: MNAR with second PXXP motif (aa 64-67) mutated (protein, listed as Homo sapiens)
chain: GGAQNLSALGALVSLSNARLSSIKTRFEGLCLLSLLVGESPTELFQQHCVSWLRSIQQVLQTQDPPATMELAVAVLRDLLRYAAQLPALFRDISMNHLPGLLTSLLGLRPECEQSALEGMKACMTYFPRACGSLKGKLASFFLSRVDALSPQLQQLACECYSRLPSLGAGFSQGLKHTESWEQELHSLLASLHTLLGALYEGAETAPVQNEGPGVEMLLSSEDGDAHVLLQLRQRFSGLARCLGLMLSSEFGAPVSVPVQEILDFICRTLSVSSKNISLHGDGPLRLLLLPSIHLEALDLLSALILACGSRLLRFGILIGRLLPQVLNSWSIGRDSLSPGQERPYSTVRTKVYAILELWVQVCGASAGMLQGGASGEALLTHLLSDISPPADALKLRSPRGSPDGSLQTGKPSAPKKLKLDVGEAMAPPSHRKGDSNANSDVCAAALRGLSRTILMCGPLIKEETHRRLHDLVLPLVMGVQQGEVLGSSPYTSSR
For B2, the “role of mutated PXXP motif in activating ER transcriptional activity” value was “dispensable”.
